# Results published in paper PMC4336329 (PLoS ONE, 2015).
# Hit rate of the full screen: of about 310,000 compounds, about 2,200 (0.71%) showed an effect of 50% or more. Effects have a minus sign here. The list shows a part of the results.
# Target: human ether-à-go-go-related gene (hERG) potassium channel (human, UniProt Q12809)
# Assay: primary screen, population patch clamp on CHO cells stably expressing hERG
# Sequence of human ether-à-go-go-related gene (hERG) potassium channel (Q12809 whole entry, looked up): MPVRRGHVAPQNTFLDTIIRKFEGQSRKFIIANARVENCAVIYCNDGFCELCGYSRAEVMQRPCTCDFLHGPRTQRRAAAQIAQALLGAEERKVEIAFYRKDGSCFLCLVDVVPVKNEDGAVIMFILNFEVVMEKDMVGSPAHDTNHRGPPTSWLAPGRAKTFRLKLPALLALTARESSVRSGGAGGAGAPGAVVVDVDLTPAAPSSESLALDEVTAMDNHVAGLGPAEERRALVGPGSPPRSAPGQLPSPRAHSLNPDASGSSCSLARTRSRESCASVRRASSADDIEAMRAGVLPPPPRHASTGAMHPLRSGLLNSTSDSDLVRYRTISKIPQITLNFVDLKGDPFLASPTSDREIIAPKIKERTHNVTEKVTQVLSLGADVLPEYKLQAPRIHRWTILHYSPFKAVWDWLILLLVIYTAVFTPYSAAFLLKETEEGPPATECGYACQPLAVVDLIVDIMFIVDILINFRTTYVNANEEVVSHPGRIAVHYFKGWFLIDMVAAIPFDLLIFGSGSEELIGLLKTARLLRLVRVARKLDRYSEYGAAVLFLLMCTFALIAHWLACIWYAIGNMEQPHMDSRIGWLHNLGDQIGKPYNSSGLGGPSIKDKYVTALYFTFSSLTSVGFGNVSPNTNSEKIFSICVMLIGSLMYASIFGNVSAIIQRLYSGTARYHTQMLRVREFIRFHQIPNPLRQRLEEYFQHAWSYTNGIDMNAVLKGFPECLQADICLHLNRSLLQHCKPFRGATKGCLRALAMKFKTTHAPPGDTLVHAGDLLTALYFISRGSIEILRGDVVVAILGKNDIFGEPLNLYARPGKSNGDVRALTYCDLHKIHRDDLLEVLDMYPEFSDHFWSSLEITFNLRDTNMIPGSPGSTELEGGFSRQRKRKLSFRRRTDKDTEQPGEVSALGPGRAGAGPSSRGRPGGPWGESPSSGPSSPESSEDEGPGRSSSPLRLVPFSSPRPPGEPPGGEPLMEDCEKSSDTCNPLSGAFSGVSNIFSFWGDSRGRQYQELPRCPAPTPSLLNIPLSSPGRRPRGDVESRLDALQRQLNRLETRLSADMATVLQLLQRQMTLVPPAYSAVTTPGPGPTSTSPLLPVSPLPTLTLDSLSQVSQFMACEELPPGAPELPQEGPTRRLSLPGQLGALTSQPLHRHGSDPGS
row,SMILES,"hERG current change (%, negative = inhibition) at 1uM"
1,O=C(CCc1ccccc1)NN1C(=O)C2C3C=CC(C3)C2C1=O (centres unmarked),14%
2,O=C(NC(O)C(=O)c1ccccc1)c1ccccn1 (centres unmarked),17.2%
3,COc1ccc(OC)c(S(=O)(=O)NC2CCCCNC2=O)c1 (centres unmarked),13%
4,Cn1c(CCCOc2ccc(Cl)cc2Cl)nnc1SCC(=O)Nc1ccc(F)c(Cl)c1,10.6%
5,CCN1C(=O)[C@H]2[C@@H](c3ccc(-c4ccc(Cl)c(Cl)c4)cc3)N[C@@](CC(C)C)(C(=O)OC)[C@H]2C1=O.O=C(O)C(F)(F)F,11.6%
6,COc1ccc(-n2c(SCC3CNC(=O)O3)nnc2-c2ccc(Cl)cc2)cc1 (centres unmarked),-11.6%
7,NNC(=O)COc1ccccc1[N+](=O)[O-],34%
8,Nc1nc(Nc2ccccc2Cl)cc(=O)[nH]1,9.88%
9,Cc1ccc(S(=O)(=O)n2cc(-c3ccccc3)c(N)n2)cc1,0.171%
10,COc1ccc(C(=O)C2CCN(C(=S)NCCc3ccccc3)CC2)cc1,3.98%
11,COC(=O)C(Cc1ccccc1)NC(=O)CSc1nc(C)cc(=O)[nH]1 (centres unmarked),8.82%
12,Cn1ncc(Cl)c1C(=O)N1CCN(c2ccccc2)CC1,13.5%
13,Nc1ccc(SC(F)(F)F)cc1C(=O)c1ccccc1,7.74%
14,N#CC1=C(N)Oc2c(c(=O)oc3ccccc23)C1c1ccc(OC(=O)N2CCOCC2)cc1 (centres unmarked),3.2%
15,O=C(CNC(=O)C1CCCCC1)NCCCO,7.31%
16,CCOc1ccccc1CN1CCN(Cc2cccc3nonc23)CC1CCO (centres unmarked),-50%
17,Cc1cc(C)n2ncc(C(=O)NCc3ccccc3)c2n1,2.31%
18,Cn1c(CNC(=O)c2ccco2)nnc1SCC(=O)Nc1ccc(Br)cc1F,-13.9%
19,CCCCNC(=O)C1(NC(=O)Nc2ccc(C)cc2)CCCCC1,15.2%
20,COc1ccc(NC(=O)CSc2nnc(C)n2C2CCCCC2)cc1,2.3%
21,CCC(=O)Nc1cccc2c1C(=O)N(C)C2=O,7.02%
22,N/C(Cc1ccc([N+](=O)[O-])cc1)=N\OC(=O)Cc1ccc(Cl)cc1,13.3%
23,COc1ccc(-c2nnc(CSc3nc4ccccc4c(=O)n3CC(C)C)o2)cc1OC,12%

row,SMILES,"hERG current change (%, negative = inhibition) at 1uM"
1,COc1cc(C)ccc1OCCCCOc1ccccc1C(C)=O,11.6%
2,COc1ccc(C(=O)Nc2ccccc2C(=O)NCc2cccnc2)cc1OC,-8.05%
3,O=C(CSc1ncnc2scc(-c3ccc(F)cc3)c12)c1ccc2c(c1)OCCO2,13%
4,O=C(Nc1ccccc1N1CCOCC1)c1cc2c(s1)CCCCC2,8.56%
5,O=C(CN(C(=O)CNC(=O)c1cccs1)c1ccccc1F)NC1CCCCC1,16.3%
6,Cc1cc(-c2csc3ncnc(N4CCN(C)CC4)c23)cc(C)c1C,-12%
7,Cc1cc(C)c2nc(C(F)(F)F)nc(N3CCN(C(=O)c4ccco4)CC3)c2c1,1.46%
8,Cl.NNCc1cccc(O)c1,8.09%
9,COCCn1c(SC(C)C(=O)Nc2ncc(Cl)cc2Cl)nc2ccccc21 (centres unmarked),-3.16%
10,Cc1c(Cl)cccc1NC(=O)CCC(=O)NNC(=O)c1ccccc1,9.01%
11,CCOc1ccc(C(C(=O)NC2CCCC2)N(CCOC)C(=O)CNC(=O)c2ccco2)cc1 (centres unmarked),1.49%
12,O=C(NC1CCCC1)c1ccc([N+](=O)[O-])s1,0.602%
13,COc1ccc(S(=O)(=O)N(CCc2ccccc2)CC(=O)N2CCOCC2)cc1,-0.7%
14,CC(=O)Nc1ccc(S(=O)(=O)NC(CC(=O)O)c2ccc(C)cc2)cc1 (centres unmarked),7.14%
15,O=C(CSc1nnc(-c2cccc(S(=O)(=O)N3CCCCC3)c2)o1)c1ccc[nH]1,10.2%
16,COc1cccc(CN(C)C(=O)c2ccc(Oc3ccccc3)cc2)c1OC,6.1%
17,CCC(NC(=O)Cc1c(C)c2c(cc(C)c3c(C)c(C)oc32)oc1=O)C(=O)O (centres unmarked),10.5%
18,Cc1ccc(CNC(=O)c2ccc(N3CCC4(CC3)CC(c3ccccc3)=NO4)c(NC(=O)c3ccc(Br)cc3)c2)cc1,20.9%
19,COCCNC(=O)C(OC(=O)C1=Cc2ccccc2OC1)C(C)C (centres unmarked),12%
20,CCOC(=O)N1CCC(NC(=O)c2ccc3c(c2)N=C(CC)c2cc(C)ccc2S3)CC1,12%
21,CCN(c1cccc(C)c1)S(=O)(=O)c1ccc2[nH]c(=O)c(=O)[nH]c2c1,-3.15%
22,Cc1ccc(-n2c(C)nc3ncnc(-c4ccccc4)c32)cc1,8.56%
23,CC(=O)CCc1c(C)c2cc(C)ccc2[nH]c1=O,0.299%

row,SMILES,"hERG current change (%, negative = inhibition) at 1uM"
1,COCCNC(=O)COc1ccc(N(C)S(=O)(=O)c2ccc3ccccc3c2)cc1,3.32%
2,CS(=O)(=O)N(Cc1ccccc1)c1ccc(C(=O)N2CCc3ccccc3C2)cc1,3.66%
3,COc1cccc(C(C(=O)NC2CCCC2)N(CCC(C)C)C(=O)CCC(=O)Nc2cc(C)on2)c1 (centres unmarked),-4.96%
4,CC(C)n1c(C(F)(F)F)nc2cc(C(=O)N3CCOCC3)ccc21,8.44%
5,COc1ccc(C(=O)/C=C/c2ccc(N3CCCCC3)c([N+](=O)[O-])c2)c(OC)c1,7.9%
6,Fc1ccccc1CSc1ncnc2sc3c(c12)CCCC3,8.62%
7,CC(=O)Nc1ccc(S(=O)(=O)N2CCC(C(=O)NCCc3ccc(Cl)cc3)CC2)cc1,7.33%
8,COC(=O)c1nc(NC(=O)C(C)C)n[nH]1,-7.19%
9,CC1CCc2c(sc(NC(=O)CSc3ncn[nH]3)c2C#N)C1 (centres unmarked),15.7%
10,CCOC(=O)[C@H]1[C@H]2COc3ccc(Cl)cc3[C@@H]2N2C(=O)CN(CC3CCCO3)C(=O)[C@@]12C (some centres unmarked),15.6%
11,COc1ccc(NC(=S)N(CCCN2CCN(C)CC2)Cc2cccs2)cc1,-14%
12,CC1SC(c2ccc(F)cc2)N(CCc2ccccc2)C1=O (centres unmarked),10.1%
13,COc1cc(C(=O)N2CCCC(c3nc(-c4cccs4)no3)C2)cc(OC)c1OC (centres unmarked),1.54%
14,Cc1ccc(F)c([C@H]2C3C=CCC(c4ccccc4)C3C(=O)N2Cc2ccccc2)c1 (some centres unmarked),12.4%
15,CC(=O)c1c(O)cc(O)c(C(C)=O)c1O,6.85%
16,CCOC(=O)NC(=O)/C(C#N)=N/Nc1c(F)cccc1F,7.05%
17,O=C(CCc1nc2ccccc2s1)Nc1cccnc1,-0.146%
18,Cc1oc(-c2cccs2)nc1CS(=O)CC(=O)NCCc1ccccc1 (centres unmarked),1.54%
19,CN(CC(=O)Nc1ccccc1Br)C(=O)c1cccn1C,15.4%
20,CC(OC(=O)C(C)N1C(=O)C2C3C=CC(C4CC34)C2C1=O)C(=O)c1ccccc1 (centres unmarked),12.4%
21,CCCCN=c1scc(-c2ccc3c(c2)NC(=O)CO3)n1N=C1CCCC1,17.1%
22,COC(=O)N/N=C/c1ccc(OC(=O)c2ccco2)c(OC)c1,21.5%
23,CCN1CCC(NC(=O)Nc2ccc(F)cc2)CC1,5.72%

row,SMILES,"hERG current change (%, negative = inhibition) at 1uM"
1,Cc1cc(NC(=O)COC(=O)CCS(=O)(=O)c2cc(Cl)ccc2Cl)no1,16.3%
2,O=C(Nc1nncs1)c1cccc(S(=O)(=O)N2CCOCC2)c1,2.43%
3,O=C(Nc1cc2c(cc1Br)OCCCO2)c1cccnc1,3.19%
4,CCOC(=O)c1sc2nc(N3CCOCC3)c3c(c2c1N)CC(C(C)C)OC3 (centres unmarked),7.72%
5,C=CCNC(=O)CN1C(=O)c2cccc3cccc1c23,4.05%
6,Cc1cc(C)nc(NC(=O)/C=C/c2ccccc2Cl)c1,22.1%
7,O=C(COc1ccc2c(-c3ccccc3)cc(=O)oc2c1)N[C@@H](Cc1c[nH]c2ccc(O)cc12)C(=O)O,14.2%
8,COc1ccc(C(=O)n2nc(-c3ccc(C)cc3)nc2N)cc1OC,10.8%
9,CC1CCCN(S(=O)(=O)c2ccc3c(c2)C(C)(C)C(=O)N3C)C1 (centres unmarked),10.3%
10,Fc1ccc(CO/N=C2\CCCc3nonc32)cc1,-7.13%
11,CC(C)(C)NC(=O)CSc1nnc(NC(=O)c2ccccc2Cl)s1,8.52%
12,CC(C)Cc1csc(NC(=O)c2ccc(Br)cc2)c1C(=O)O,15.5%
13,COc1ccccc1N1CCN(/N=C/c2ccc([N+](=O)[O-])cc2)CC1,9.01%
14,CCC(C)N=C1CC(C)(C)CC(=O)/C1=C(/O)Cc1ccccc1 (centres unmarked),5.75%
15,O=C(CNC(=O)c1cc2ccccc2o1)NCc1cccs1,15.4%
16,CNC(=O)N(O)C1N(/N=C/c2ccc(SC)cc2)C(=S)SC1(C)C (centres unmarked),18.6%
17,CCN(CC)c1ccc(/C=N/NC(=O)Cc2cccs2)c(O)c1,13%
18,Cc1ccc([N+](=O)[O-])cc1S(=O)(=O)N1CCC(C)CC1,24%
19,Cc1[nH]nc(SCC(=O)NCC(C)C)c1[N+](=O)[O-],9.93%
20,Cc1csc(CN(C)C(=O)CC2C(=O)NCCN2Cc2ccc(F)cc2Cl)n1 (centres unmarked),-0.193%
